In the supplement of paper PMC11417369:
The list shows a part of the results.

test system: PfSIP2 AP2 domain 1 (GST-tagged); test: gcPBM binding intensity (ln(normalized median fluorescence intensity)); higher = stronger DNA binding
Method in brief: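 GST-tagged P. falciparum DNA-binding domains, expressed in E. coli (about 25 μg on average), were applied for 1 h to an Agilent 4 × 180k array of primer-extended double-stranded 36-bp intergenic genomic probes plus negative controls. The binding buffer was 1× PBS with 1% milk, 0.2 mg/ml BSA, 0.5% salmon testes DNA and 0.03% Triton X-100. Bound protein was detected with Alexa488 anti-GST antibody and scanned at 488 nm. Binding intensity is the highest Masliner-normalised natural-log median intensity across replicate spots of either probe orientation.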

| Sequence | gcPBM binding intensity (ln) |
| --- | --- |
| TGAATAAATATATATACACACCCATATATATATATA [CACACA_site8833] | 9.46 |
| GTTGTCCCCCTTTCTATGCACACTTTAAATTATTCA [CACACA_site52] | 8.38 |
| AATTTATAAGAATATTGTACGTTTAATATATTGTAA [XGTACX_site7553] | 7.27 |
| ATTCTAATAGATAGTAGTACCTATAAGTTTTCTTTT [XGTACX_site2315] | 6.79 |
| AAAATAATAATTAAATAATAGTAAATGAAAAATAAA [CACACA_negctrl_site57] | 6.91 |
| AAGTTTATTATATATAAATTATTATATATATATATA [CACACA_negctrl_site189] | 9.27 |
| TATGTGTTCAGTATTGCACACACACTCCAAAATAAA [CACACA_site8018] | 6.93 |
| ACTTCATTTTATAAGTGTACATAATTTGTTTATATA [XGTACX_site5453] | 7.26 |
| ATAAATACTAGGCACACACACATATAGATTTATATA [CACACA_site7064] | 7.14 |
| ATATCAACTGAATTGTATAGGCGATAAAAGAAAAAA [CACACA_negctrl_site1334] | 6.73 |
| TTTATACATACATTCGTGCACATACGTATAACATAT | 10.1 |
| ATATAAATATATGTATGTACACATTTTTTTTTTTTT [XGTACX_site247] | 7.11 |
| AGAATTATAAATTATAGTACATAAAATTTTGATGTA [XGTACX_site5726] | 6.97 |
| AAACGATCTCGATGTTGTACACATTTATATAGAAAC [XGTACX_site4373] | 7.13 |
| TACTAAAATATATATATGCAACATGAGATATTCAAC [XGTACX_negctrl_site283] | 7.17 |
| CATGTGTGTATAATTTGTACATATACATAATAAATA [XGTACX_site2418] | 6.92 |
| CTAAACTAAACAAACTGTACACAAATAAAACAATAA [XGTACX_site8880] | 7.4 |
| TCTCATAGGAAACACACACACACACCCACATATATA [CACACA_site1738] | 7.13 |
| ATATATTTTTTAAATTTAAAAATTATAAAATTTATA [TGCATGCA_negctrl_site36] | 6.96 |

| Sequence | gcPBM binding intensity (ln) |
| --- | --- |
| ATATATGTGCGCGTATGTACATAAAATAAATATACA [XGTACX_site2689] | 7.71 |
| TAAATAAAAAAAAAAAGTACATACATACAAACATAT [XGTACX_site4427] | 7.08 |
| TGGGTCTCTAACTGGTGTACTATTTACATATTATAC [XGTACX_site8593] | 7.03 |
| TATGATTTTAACAACTGTACAATATAATAAATCTAA [XGTACX_site2198] | 6.86 |
| ATATATTTTTAATTACGTACTTAATAATATATACAA [XGTACX_site3285] | 7.17 |
| TAAAAGAAAAATTAGTGTACCAATATTAACATAAAA [XGTACX_site5474] | 6.75 |
| ATTAAAAGAACCAAGTGTACATTCTATATATAAAAA [XGTACX_site4260] | 6.97 |
| TATACAATATATTTTGGTACACAAACAAAAAAATAT [XGTACX_site2522] | 7.2 |
| GAAAAAGACAAAAGGTGTACAATATGAAATATATAT [XGTACX_site373] | 7.37 |
| GTTCACCAAAGGTAACGTACACAAACATATATATAT [XGTACX_site1073] | 8.91 |
| ATATTATGATCTATTTTTATATTCTATTTGATAAAT [CACACA_negctrl_site1070] | 6.97 |
| TAATTCTAAATAAATGTACACACAAAAATAAATGTA [CACACA_site8509] | 7.02 |
| TATATATATATTATATGTACATAAATATTTATACTC [XGTACX_site114] | 8.59 |
| TTATAAAATTTTCTTCTATATTTTAATTATTCTCAT [TGCATGCA_negctrl_site571] | 6.79 |
| TTGATAAAATGGGAGAAATTAAAAAGGAAAAAAAAA [CACACA_negctrl_site1279] | 6.73 |
| CTATTTTATATGTGCACACATATACACCCACAAATA [CACACA_site1131] | 9.31 |
| TTAAATATAATTATATGTACATATTTATGTATATAT [XGTACX_site5811] | 7.01 |
| AGATTGTATTTATGTACACACATTTTTGGAATATGA [CACACA_site1340] | 7.2 |
| TTGATTAAAATTAGTACACACAAAATACATGCGGGG [CACACA_site5284] | 7.5 |

| Sequence | gcPBM binding intensity (ln) |
| --- | --- |
| AATTTACAAAAAAGAAAAAAAAAAAAAAAGATACTT [CACACA_negctrl_site1434] | 6.7 |
| ATATGCACTCATTGTGCACACGCATATTACGAAAAG [CACACA_site2637] | 11 |
| ATATTATAATGTTTTTACGAATTCGCAAATTATTAT [GTGCAC_negctrl_site470] | 6.91 |
| TTTTTTTTTTTTTTTTTTTTTTTTTTATGATATATA [GTGCAC_negctrl_site365] | 6.82 |
| TTAATTATCCATTTTGCACACATTTTAAAACATGAA [CACACA_site189] | 7.56 |
| TATATATTAAAATAATCACACACATCAATTAATGGT [CACACA_site8331] | 7.01 |
| TAATTTATTACCATGTAATTATTACGAATATAGGAT [CACACA_negctrl_site694] | 7.01 |
| AAAAAATTATTAATTTGTACATAAATAACCAAAAAA [XGTACX_site2488] | 6.94 |
| GAAATATAATTTATTACACACATTTTAAAAAAATTC [CACACA_site1087] | 6.67 |
| TTCAACGTTTTGGAATGTACAGAAAGGTATCCATCA [XGTACX_site179] | 6.97 |
| AAAAAAAAAAAAAAAAAAAAAAAAAAAAAATATGTG [GTGCAC_negctrl_site657] | 8.81 |
| TTTATAACATTTAAGAGTACAAAAAAATAAATAAAT [XGTACX_site1264] | 7.07 |
| TAAAAGATAAAATATGCATGTGTAATTTTTTTTTTT [TGCATGCA_site955] | 6.79 |
| TATTATTTACTTATTGCACACATATAAAATATATTT [CACACA_site9017] | 7.33 |
| AAAAAAATATATAAATGTACATATTGTTTAATTAAT [XGTACX_site3794] | 7.1 |
| ATGAACTAAACTAATCGTACAATAAGTTTTATTATA [XGTACX_site4891] | 6.84 |
| ATCTATCATATTTATGCACACAAAAATAATTAATTC [CACACA_site8837] | 7.35 |
| TCACACACTCTCAAAAGTACAAGAAGATTATGAAGA [XGTACX_site4748] | 7 |
